Test results: the supplement of paper PMC3334620
Over roughly 33,000 sequences, “E-score (-0.5 to 0.5)” has its median near -0.041; the highest 2% begin near 0.37. This is one part of the list.

What follows are sequences tested against T1, Ecm22 (UniProt Q05958) (assay: PBM E-score (8-mer binding enrichment) (E-score (-0.5 to 0.5)); higher = stronger / more preferred TF binding; most listed sequences are background and not binding sites). Settings: protein concentration: 200 nM; construct: GST-full length.
T1 sequence: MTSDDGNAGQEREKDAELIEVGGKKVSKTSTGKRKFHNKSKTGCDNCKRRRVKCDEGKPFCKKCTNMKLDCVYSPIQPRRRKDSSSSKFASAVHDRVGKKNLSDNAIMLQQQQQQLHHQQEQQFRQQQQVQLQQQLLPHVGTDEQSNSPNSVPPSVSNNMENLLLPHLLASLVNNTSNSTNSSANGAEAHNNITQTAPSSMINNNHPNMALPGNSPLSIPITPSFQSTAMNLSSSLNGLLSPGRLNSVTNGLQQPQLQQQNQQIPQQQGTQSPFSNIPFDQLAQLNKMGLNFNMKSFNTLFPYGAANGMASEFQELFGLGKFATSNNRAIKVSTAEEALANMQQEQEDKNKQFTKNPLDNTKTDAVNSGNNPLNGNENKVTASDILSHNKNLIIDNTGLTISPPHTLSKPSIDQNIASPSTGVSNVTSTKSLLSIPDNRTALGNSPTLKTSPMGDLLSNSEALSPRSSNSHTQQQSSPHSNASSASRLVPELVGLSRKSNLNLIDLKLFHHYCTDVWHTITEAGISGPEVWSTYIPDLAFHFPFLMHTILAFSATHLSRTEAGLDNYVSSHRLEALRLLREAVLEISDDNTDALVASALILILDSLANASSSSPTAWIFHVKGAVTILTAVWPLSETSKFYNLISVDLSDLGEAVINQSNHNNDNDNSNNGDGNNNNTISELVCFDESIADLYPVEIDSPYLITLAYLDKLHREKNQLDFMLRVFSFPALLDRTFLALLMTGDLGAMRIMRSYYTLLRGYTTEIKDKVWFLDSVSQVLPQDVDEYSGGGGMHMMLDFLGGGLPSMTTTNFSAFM
Summary of the method: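 GST-tagged yeast TFs (full-length or DNA-binding domain) were made by PURExpress in vitro transcription/translation and applied at about 100-200 nM to universal all-10-mer Agilent arrays. The arrays were made double-stranded by primer extension, on fresh or once-stripped slides. Bound protein was detected with fluorescent anti-GST, and scans were normalised with masliner. Each ungapped eight-base word, pooled with its reverse complement, received an E-score (modified Wilcoxon-Mann-Whitney statistic) from the Universal PBM Analysis Suite.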

| Sequence | PBM E-score |
| --- | --- |
| ACTTATAG | 0.0935 |
| AAGCGAGT | 0.357 |
| ATTAAAAG | 0.0211 |
| ATAAAGAC | -0.162 |
| GGATTACA | -0.196 |
| ACACACAC | 0.0472 |
| CGAGAATA | 0.189 |
| TGAGAACA | -0.17 |
| GAAGGGGC | -0.261 |
| CGAAGTAC | 0.264 |
| CATCGGCA | -0.0638 |
| CATCTTGG | -0.214 |
| AGTGATAT | 0.201 |
| CAACGAAG | 0.277 |
| CTACCAAG | -0.23 |
| AAGGCCAG | -0.265 |
| AGCGTACT | 0.103 |
| ATATGTTG | -0.0404 |
| AGGGCGGG | -0.0524 |
| AGACCAAT | -0.0553 |
| GCAGTACA | -0.132 |
| TACTTGAA | 0.0126 |
| ATGGACAG | -0.208 |
| GTGAAGAA | 0.0883 |

| Sequence | PBM E-score |
| --- | --- |
| ATATCTCC | 0.0559 |
| AGGTGCAA | -0.169 |
| GTCGAGAA | 0.0318 |
| GGAAATCA | -0.0787 |
| CCCCAAAG | -0.25 |
| ACAGATGG | -0.325 |
| ATGGTCGA | -0.0698 |
| AGGATGAC | -0.183 |
| ACACGTGT | 0.104 |
| CCGCCAGC | -0.163 |
| GGAAGAGA | -0.178 |
| GAACGTCA | -0.229 |
| CGGTATTA | 0.134 |
| ATTTCATG | -0.207 |
| GATATGGC | -0.285 |
| AGACAGAA | -0.0147 |
| CTGTTGGA | -0.176 |
| CGAAATGA | 0.141 |
| CAGAAGGC | -0.161 |
| CCGGGAGG | -0.132 |
| ATTGAGTA | 0.0297 |
| GGAGACTA | -0.0834 |
| CTCCCTAC | -0.135 |
| GGGCGCAC | -0.206 |

| Sequence | PBM E-score |
| --- | --- |
| CGGATAAC | 0.151 |
| GAACCGAC | 0.316 |
| CAGTATCC | -0.00158 |
| ATAAAATG | 0.0169 |
| ACTCTGGC | -0.252 |
| AATATTAC | 0.174 |
| CGTGGTCA | -0.0996 |
| AAGGACCA | -0.121 |
| ATATCGCA | 0.00652 |
| AGCGGGAT | 0.0859 |
| TAAGGGGA | -0.243 |
| ACCCCCAC | -0.385 |
| ATAACAAT | -0.0971 |
| ATCATCGG | -0.0581 |
| GCGCGTTA | 0.0959 |
| AGCGTCAA | -0.193 |
| AGAGTCAT | -0.277 |
| ATTGACGC | -0.224 |
| ACTTCGAA | 0.177 |
| CATCAGAA | -0.0919 |
| GAAACCCC | -0.204 |
| AGGGCTGC | -0.243 |
| ATTTCGGA | 0.179 |
| GTGTGTCA | -0.0374 |

| Sequence | PBM E-score |
| --- | --- |
| GGGTTTGA | -0.0819 |
| GGACACGA | 0.178 |
| AACTAGGC | -0.152 |
| CGCTTCCG | 0.205 |
| AGTTCCCG | 0.0677 |
| AGCAAGAA | -0.0831 |
| CAGTCCTA | -0.252 |
| GAGTTGAC | 0.0175 |
| GAGCCAAC | -0.15 |
| CAGCGATG | -0.175 |
| ACCGGACT | -0.0404 |
| AGCTTAAG | -0.104 |
| CTTTGCTC | -0.0468 |
| AAAGAGCC | -0.146 |
| ATGGCCTG | -0.305 |
| TAGCTGAA | 0.0371 |
| GTCTGCAC | -0.269 |
| ACGGTCCA | 0.016 |
| CCCCGCTC | -0.0291 |
| CGATCAAC | 0.169 |
| GCTATATA | 0.0637 |
| TACACTAA | -0.113 |
